The source of these data is PMC7230264.

Assay in all cases: co-IP; lysates of HEK293T cells transfected 48 h with EGFP-tagged MAG clones (50 mM Tris-HCl pH 8.0, 120 mM NaCl, 0.5% Triton X-100, sonicated); anti-GFP antibody on Dynabeads, overnight at 4 °C; immunoblots for endogenous GM130 and calnexin
Assay [1] addresses T1, wild-type myelin-associated glycoprotein (MAG) in fusion with a C-terminal EGFP-tag (human) (UniProt P20916).
T1 sequence: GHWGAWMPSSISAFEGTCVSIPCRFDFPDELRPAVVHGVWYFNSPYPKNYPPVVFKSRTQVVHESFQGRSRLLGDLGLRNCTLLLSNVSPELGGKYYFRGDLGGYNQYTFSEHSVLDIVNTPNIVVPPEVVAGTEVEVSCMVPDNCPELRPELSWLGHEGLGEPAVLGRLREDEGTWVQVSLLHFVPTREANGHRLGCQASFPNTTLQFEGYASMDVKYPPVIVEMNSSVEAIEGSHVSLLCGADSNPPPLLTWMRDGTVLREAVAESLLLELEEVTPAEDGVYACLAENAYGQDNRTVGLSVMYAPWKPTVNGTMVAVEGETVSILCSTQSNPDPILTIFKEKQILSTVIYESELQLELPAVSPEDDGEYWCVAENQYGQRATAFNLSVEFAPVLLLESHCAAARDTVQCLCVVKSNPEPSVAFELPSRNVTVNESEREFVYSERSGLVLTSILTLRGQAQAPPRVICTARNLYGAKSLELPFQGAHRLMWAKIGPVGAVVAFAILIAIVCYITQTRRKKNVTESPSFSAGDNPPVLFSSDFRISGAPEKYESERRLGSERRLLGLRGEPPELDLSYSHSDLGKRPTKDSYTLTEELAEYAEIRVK

For assay [2], the target named is T2, MAG carrying the p.Ser133Arg variant in fusion with a C-terminal EGFP-tag (human) (UniProt P20916).
T2 sequence: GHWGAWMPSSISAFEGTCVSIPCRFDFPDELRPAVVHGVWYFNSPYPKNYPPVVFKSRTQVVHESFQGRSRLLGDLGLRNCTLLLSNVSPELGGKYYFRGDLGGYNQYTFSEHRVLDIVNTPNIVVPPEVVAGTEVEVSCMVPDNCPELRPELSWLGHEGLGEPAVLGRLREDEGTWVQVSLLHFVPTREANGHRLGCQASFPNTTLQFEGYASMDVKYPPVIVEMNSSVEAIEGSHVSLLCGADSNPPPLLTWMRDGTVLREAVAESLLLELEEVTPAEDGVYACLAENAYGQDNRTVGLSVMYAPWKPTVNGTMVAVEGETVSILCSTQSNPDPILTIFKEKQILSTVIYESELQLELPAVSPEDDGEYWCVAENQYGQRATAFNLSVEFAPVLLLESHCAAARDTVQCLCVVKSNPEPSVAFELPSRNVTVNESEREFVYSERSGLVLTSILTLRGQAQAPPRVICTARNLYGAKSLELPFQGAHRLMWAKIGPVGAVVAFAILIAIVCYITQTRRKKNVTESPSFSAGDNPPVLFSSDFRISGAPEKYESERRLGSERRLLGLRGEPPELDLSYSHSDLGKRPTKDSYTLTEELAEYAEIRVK

Assay [3] has as its target T3, MAG carrying the p.Cys42Arg variant in fusion with a C-terminal EGFP-tag (human) (UniProt P20916).
T3 sequence: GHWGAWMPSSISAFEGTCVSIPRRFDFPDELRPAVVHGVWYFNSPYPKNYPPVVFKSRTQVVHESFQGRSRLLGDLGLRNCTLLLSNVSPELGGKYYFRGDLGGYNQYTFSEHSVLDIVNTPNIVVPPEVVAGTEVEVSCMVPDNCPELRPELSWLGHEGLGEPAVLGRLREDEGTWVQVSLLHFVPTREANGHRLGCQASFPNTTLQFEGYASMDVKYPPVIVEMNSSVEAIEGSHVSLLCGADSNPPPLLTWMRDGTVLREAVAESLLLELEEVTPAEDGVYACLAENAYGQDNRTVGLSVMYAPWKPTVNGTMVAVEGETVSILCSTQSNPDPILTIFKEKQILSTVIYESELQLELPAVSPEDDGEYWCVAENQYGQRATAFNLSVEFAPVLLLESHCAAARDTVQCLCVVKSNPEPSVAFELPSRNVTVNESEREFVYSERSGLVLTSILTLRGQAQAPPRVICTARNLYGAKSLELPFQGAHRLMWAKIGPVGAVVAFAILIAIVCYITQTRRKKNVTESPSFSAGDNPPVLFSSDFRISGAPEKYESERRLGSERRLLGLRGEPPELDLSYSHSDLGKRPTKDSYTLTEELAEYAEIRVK

No constants are given. Whether binding was seen depends on the method and setting. In cells and extracts the contact can be indirect. Some results given as binding are weak or reduced against the parent protein; the word gives no strength. Sequences can lack the tags named with a protein.

B1: calnexin (protein, UniProt P27824 21-592)
chain: HDGHDDDVIDIEDDLDDVIEEVEDSKPDTTAPPSSPKVTYKAPVPTGEVYFADSFDRGTLSGWILSKAKKDDTDDEIAKYDGKWEVEEMKESKLPGDKGLVLMSRAKHHAISAKLNKPFLFDTKPLIVQYEVNFQNGIECGGAYVKLLSKTPELNLDQFHDKTPYTIMFGPDKCGEDYKLHFIFRHKNPKTGIYEEKHAKRPDADLKTYFTDKKTHLYTLILNPDNSFEILVDQSVVNSGNLLNDMTPPVNPSREIEDPEDRKPEDWDERPKIPDPEAVKPDDWDEDAPAKIPDEEATKPEGWLDDEPEYVPDPDAEKPEDWDEDMDGEWEAPQIANPRCESAPGCGVWQRPVIDNPNYKGKWKPPMIDNPSYQGIWKPRKIPNPDFFEDLEPFRMTPFSAIGLELWSMTSDIFFDNFIICADRRIVDDWANDGWGLKKAADGAAEPGVVGQMIEAAEERPWLWVVYILTVALPVFLVILFCCSGKKQTSGMEYKKTDAPQPDVKEEEEEKEEEKDKGDEEEEGEEKLEEKQKSDAEEDGGTVSQEEEDRKPKAEEDEILNRSPRNRKPRRE
Consider B1, for which the binding entry in assay [1], in assay [2] and in assay [3] was “binds” throughout.

B2: GM130 (protein, UniProt Q08379 1-1002)
chain: MWPQPRLPPRPAMSEETRQSKLAAAKKKLREYQQRNSPGVPTGAKKKKKIKNGSNPETTTSGGCHSPEDTPKDNAATLQPSDDTVLPGGVPSPGASLTSMAASQNHDADNVPNLMDETKTFSSTESLRQLSQQLNGLVCESATCVNGEGPASSANLKDLESRYQQLAVALDSSYVTNKQLNITIEKLKQQNQEITDQLEEEKKECHQKQGALREQLQVHIQTIGILVSEKAELQTALAHTQHAARQKEGESEDLASRLQYSRRRVGELERALSAVSTQQKKADRYNKELTKERDALRLELYKNTQSNEDLKQEKSELEEKLRVLVTEKAGMQLNLEELQKKLEMTELLLQQFSSRCEAPDANQQLQQAMEERAQLEAHLGQVMESVRQLQMERDKYAENLKGESAMWRQRMQQMSEQVHTLREEKECSMSRVQELETSLAELRNQMAEPPPPEPPAGPSEVEQQLQAEAEHLRKELEGLAGQLQAQVQDNEGLSRLNREQEERLLELERAAELWGEQAEARRQILETMQNDRTTISRALSQNRELKEQLAELQSGFVKLTNENMEITSALQSEQHVKRELGKKLGELQEKLSELKETVELKSQEAQSLQQQRDQYLGHLQQYVAAYQQLTSEKEVLHNQLLLQTQLVDQLQQQEAQGKAVAEMARQELQETQERLEAATQQNQQLRAQLSLMAHPGEGDGLDREEEEDEEEEEEEAVAVPQPMPSIPEDLESREAMVAFFNSAVASAEEEQARLRGQLKEQRVRCRRLAHLLASAQKEPEAAAPAPGTGGDSVCGETHRALQGAMEKLQSRFMELMQEKADLKERVEELEHRCIQLSGETDTIGEYIALYQSQRAVLKERHREKEEYISRLAQDKEEMKVKLLELQELVLRLVGDRNEWHGRFLAAAQNPADEPTSGAPAPQELGAANQQGDLCEVSLAGSVEPAQGEAREGSPRDNPTAQQIMQLLREMQNPRERPGLGSNPCIPFFYRADENDEVKITVI
In the case of B2, the figures for the binding entry in assay [1], in assay [2] and in assay [3] were “binds”, “no binding” and “no binding”, respectively.
